Test results reported in PubChem BioAssay AID2546 (National Center for Advancing Translational Sciences (NCATS), 2010).
Among all 310,000 compounds or so, about 11,000 (3.5%) were called active. This list was built around the results that the source calls inconclusive (neither active nor inactive); the mix of calls is not that of the screen. The call rests on the fitted dose curve; in most records, active means well fitted inhibition curve with a large enough effect; inconclusive means small, poorly fitted or top-dose-only effect, or effect the other way; inactive means flat fitted curve, though single readings scatter. Potencies of inconclusive entries are left out as doubtful fits.

test: VP16 counterscreen qHTS for inhibitors of ROR gamma transcriptional activity; details: Drosophila S2 Gal4-VP16 UAS-luciferase, luminescence, 20 h; activity, negative = inhibition: at 53.6 µM (top of the series);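 further: Gal4-VP16 expression switched on by copper sulfate through the metallothionein promoter; nearly all actives have a fitted effect of over 50% in size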
On the % scale 0 is the no-effect control and ±100 the full control effect; potency means the concentration at half of the fitted maximal effect; tags describe the fitted curve by direction and shape.

Compound | Potency | activity, negative = inhibition
CCc1c(C)nc2c(-c3ccccc3)c(C)nn2c1Nc1ccc(NC(C)=O)cc1 | inconclusive [inhibitor, single point] | 
COc1ccc(-c2noc(CSc3nc(-c4ccccc4)cc(=O)[nH]3)n2)cc1OC | inconclusive [inhibitor, single point] | 
Cc1cc(S(=O)(=O)Nc2cc(C)c(O)c(C)c2)c(C)s1 | inconclusive [inhibitor, single point] | 
O=C(c1c[nH]c(C(=O)C(Cl)(Cl)Cl)c1)c1ccc(F)cc1Cl | inconclusive [inhibitor, single point] | 
COc1ccc(CNC(=O)CCS(=O)(=O)Cc2ccc(C)cc2)c(OC)c1 |  | inactive: 6.47% [at 10 µM]
CC(NC(=S)Nc1ccccc1)C(c1cccs1)N1CCOCC1 (centres undefined) | inconclusive [inhibitor, single point] | 
COc1ccc(C)cc1NC(=O)c1cc(S(=O)(=O)N2CCCC2)cn1C | inconclusive [inhibitor, single point] | 
CSc1nc2sc3c(c2c(=O)[nH]1)CCc1ccccc1-3 | inconclusive [inhibitor, single point] | 
Cn1c(-c2ccc(C(C)(C)C)cc2)n[nH]c1=S | active: 5.62 µM | 
O=C1COc2ccc(S(=O)(=O)Nc3ccc(OC(F)(F)F)cc3)cc2N1 | inconclusive [inhibitor, single point] | 
CCOC(=O)/C(=C/c1c(C)n(C)c2ccc([N+](=O)[O-])cc12)C(C)=O | inconclusive [inhibitor, single point] | 
CCNC(=S)N/N=C/c1ccc(OCc2ccc(C(=O)OC)cc2)cc1 | inconclusive [inhibitor, partial curve] | 
CCc1cccc(NS(=O)(=O)c2ccc3c(c2)n(C)c(=O)n3C)c1 | inconclusive [inhibitor, single point] | 
O=C(/C=C\c1ccc2c(c1)OCO2)NC1(C(=O)Nc2ccc3c(c2)OCO3)CCCCC1 | inactive | 
COc1cc2c(cc1NC(=O)COC(=O)[C@@H](NS(=O)(=O)c1ccccc1)C(C)C)oc1ccccc12 | inconclusive [inhibitor, partial curve] | 
CC(C)Cc1cc(C(=O)Nc2cccc(O)c2)no1 | inconclusive [inhibitor, partial curve, poor fit] | 
O=C(N/N=C/c1ccc(Br)s1)c1ccc([N+](=O)[O-])cc1 | active: 0.631 µM | 
CC(C)CCNc1nc(N2CCCC2)c2c(c1C#N)CCN(C)C2 | active: 11.2 µM | 
Nc1ccc2c(c1)C(=O)C(=O)c1ccccc1-2 | active: 2.82 µM | 
Cc1ccc(COC(=O)Cc2coc3cc(O)ccc23)cc1 | active: 7.08 µM | 
N/C(=N\OC(=O)c1ccccc1)c1ccccn1 | inconclusive [inhibitor, single point] | 
COc1c(C)cccc1C(=O)Nc1ccc(N2CCN(S(C)(=O)=O)CC2)cc1 | inconclusive [inhibitor, single point] | 
CCCC(=O)n1nc(-c2ccco2)nc1SCc1ccccc1 | inconclusive [inhibitor, single point] | 
COc1ccccc1N1CCN(/N=C/c2cc(Br)ccc2F)CC1 | inactive | 
COc1ccccc1-c1nnc(SCC(=O)c2ccc(C3CCCCC3)cc2)n1Cc1ccco1 | inactive | 

Compound | Potency | activity, negative = inhibition
Cc1ccc(NC(=O)CC(=O)c2ccccc2)cc1C | inconclusive [activator, full curve, poor fit] | 
CN(Cc1cnccn1)C(=O)C1CCC(=O)N(CCc2ccccc2)C1 (centres undefined) | inactive | 
C=CC(=O)NC(C)(C)CCN1CCOCC1 | inconclusive [inhibitor, single point] | 
N/C(=N\NC(=O)c1cccc(F)c1)c1cc2ccccc2oc1=O | active: 3.55 µM | 
Cc1ccc(Nc2nc(N)c3ccccc3n2)cc1C | inconclusive [inhibitor, single point] | 
COc1ncc2nc(CCc3ccccc3)c(=O)n(Cc3ccc(F)cc3)c2n1 | inactive | 
CCCOc1cccc(C(=O)NC(=S)Nc2cccc(C(F)(F)F)c2)c1 | inconclusive [inhibitor, single point] | 
Cc1ccc(Sc2cc(C)nc(-c3ccccn3)n2)cc1 | active: 3.16 µM | 
O=C(Cn1c(COc2ccccc2)nc2ccccc21)Nc1cc(Cl)cc(Cl)c1 | inconclusive [inhibitor, partial curve, poor fit] | 
CCOC(=O)CC(=O)COc1nc2cc3c(nc2o1)CCCC3 | inactive | 
Cc1ccc(N(CC(=O)NCc2ccc(F)cc2)C(=O)c2csnn2)cc1C | inconclusive [inhibitor, single point] | 
O=S(=O)(c1ccc(Cl)cc1)N1CCN=C1SCc1ccc(Cl)c(Cl)c1 | inactive | 
Cc1c(CCCN)c2ccccc2n1Cc1ccccc1 | inactive | 
Cn1c2ccccc2c(=O)c2cc(C#CC3(O)CCCCC3)ccc21 | active: 15.8 µM | 
CCCOC1(NC(=O)c2ccccc2)C(C)=CC(=O)C=C1C | inactive | 
CCCn1c(=O)c(C(=O)NNC(=O)c2ccccc2[N+](=O)[O-])c(O)c2ccccc21 | inconclusive [inhibitor, single point] | 
S=C(Nc1ccc(-c2nc3ccccc3[nH]2)cc1)Nc1cccnc1 | inactive | 
CC(C)c1ccc(N2C=Nc3ccc(C(C)C)cc3C2)cc1 | inconclusive [inhibitor, single point] | 
CC(=O)N1c2ccc(S(=O)(=O)N3CCCC(C(=O)NCc4ccc(Cl)cc4)C3)cc2CC1C (centres undefined) | inconclusive [inhibitor, single point] | 
COc1ccccc1Nc1ccc(NC(=O)c2cccc([N+](=O)[O-])c2C)cc1 | inactive | 
Cc1nn(-c2ccccn2)c2nc(-c3cccs3)cc(C(=O)NCc3ccco3)c12 | inconclusive [inhibitor, single point] | 
NNC(=O)CCN(Cc1ccco1)S(=O)(=O)c1ccc(Cl)cc1 | inconclusive [inhibitor, single point] | 
CCN(CC)CCN1C(=O)C2C(C(=O)Nc3cccc(C)c3)C3C=CC2(O3)C1C(=O)NC1CCCC(C)C1C (centres undefined) | inactive | 
CC(NC(=O)CCc1ccc(S(=O)(=O)NC2CCCCC2)cc1)c1ccccc1 (centres undefined) | inactive | 
Cc1nc2cc(NC(=O)Nc3ccccc3Cl)ccc2n1C | active: 11.2 µM | 

Compound | Potency | activity, negative = inhibition
O=C(Nc1nccs1)c1ccc(S(=O)(=O)N2CCOCC2)cc1 | inconclusive [inhibitor, single point] | 
CNc1ccccc(C(=O)/C=C/c2ccccc2OC)c1=O | inconclusive [inhibitor, single point] | 
Cc1cc(OCc2cc(C(=O)N(C)C3CCOCC3)no2)cc(C)c1Cl | inconclusive [inhibitor, partial curve] | 
Cn1c(C(=O)NCc2ccccc2)cc2oc3ccccc3c21 | inconclusive [inhibitor, single point] | 
COc1ccc(NC(=S)NCC2CCN(c3ccc(OC)cc3)C2)cc1 (centres undefined) | active: 4.47 µM | 
CCOC(=O)c1ccc(NC(=O)c2ccc(NS(C)(=O)=O)cc2)cc1 | inactive | 
CCOC(=O)N1CCN(CC(O)COCc2ccc(OC)c(OC)c2)CC1 (centres undefined) | inactive | 
O=C(CCC(=O)Nc1ccc(Br)cc1)N/N=C/c1cc([N+](=O)[O-])ccc1O | inactive | 
CC(NC(=O)CSc1nc2sc3c(c2c(=O)n1-c1ccccc1)CCCC3)c1ccccc1 (centres undefined) | inactive | 
Cc1c(NC(=O)NC2CCCCC2)cccc1[N+](=O)[O-] | inconclusive [activator, single point] | 
CCN(CC)S(=O)(=O)c1ccc(N2CCOCC2)c(NC(=O)C2CCCC2)c1 | inconclusive [inhibitor, single point] | 
O=C(O)C(Cc1ccccc1)N1C(=O)/C(=C/c2ccccc2)SC1=S (centres undefined) | inactive | 
COc1ccc(/C=N/NC(=S)Nc2ccccc2)cc1 | inconclusive [inhibitor, single point] | 
Cc1ccccc1C(=O)NC(=S)Nc1ccc(Cc2ccncc2)cc1 | inconclusive [inhibitor, partial curve, poor fit] | 
Cn1cc([C@@H]2C[C@H]3CN(Cc4cccc(Cl)c4)C(=O)[C@]34CCCN24)c(-c2ccccc2)n1 | active: 3.98 µM | 
CCn1c(=NC(=O)CSC(C)=O)sc2cc(OC)ccc21 | inconclusive [inhibitor, single point] | 
COc1cc(C2NC(=S)NC(C)=C2C(=O)OC(C)C)ccc1OC(C)C (centres undefined) | inconclusive [inhibitor, single point] | 
COc1cccc(C(c2c(NC(=O)c3ccccc3)sc(C)c2C)N2CCN(C)CC2)c1 (centres undefined) | inconclusive [inhibitor, single point] | 
COc1ccc(CNC(=O)c2cc3c(C)nc4ccccc4c3o2)c(OC)c1 | inconclusive [inhibitor, single point] | 
C/C(CCc1ccccc1)=N\NC(=S)NCCc1ccccc1 | active: 6.31 µM | 
O=C(NC1=NCCS1)c1ccc(Cl)c(Cl)c1 | inconclusive [inhibitor, single point] | 
CN(C)CCCNC(=S)Nc1ccc(Br)cc1 | inactive | 
S=C(NCc1ccco1)N/N=C/c1cccnc1 | inconclusive [inhibitor, single point] | 
Cc1ccc(Nc2ccc(-n3ccnc3)nn2)cc1C | inactive | 
